Results as given in US11319343B2, “Method of treatment” (ROYAL MELBOURNE INSTITUTE OF TECHNOLOGY, priority 2017, dated 2022).

Test system: PKC
Test: Cytosolic PKC activity, FRET biosensor cytoCKAR
Conditions: WT macrophages treated with Dynasore (100 μM) or bafilomycin A (100 nM)
Experimental: Cells were plated and transfected in suspension with 200 ng/well FRET biosensor DNA using PEI, in black, optically clear 96-well plates for 48 hr. Prior to the experiment, cells were partially serum-starved overnight in 0.5% v/v FBS media. Fluorescence imaging was performed using a high-content GE Healthcare INCell 2000 Analyzer with a Nikon Plan Fluor ELWD 40× (NA 0.6) objective and FRET module as described (Jensen et al. (2014) The Journal of Biological Chemistry 289(29):20283-20294). For CFP/YFP (CKAR) emission ratio analysis, cells were sequentially excited using a CFP filter (430/24) with emission measured using YFP (535/30) and CFP (470/24) filters, and a polychroic optimized for the CFP/YFP filter pair (Quad3). For GFP/RFP (EKAR) emission ratio analysis, cells were sequentially excited using a FITC filter (490/20) with emission measured using dsRed (605/52) and FITC (525/36) filters, and a polychroic optimized for the FITC/dsRed filter pair (Quad4). Cells were imaged every 100 sec for 20 min (image capture of 2 fields of view in 12 wells per 100 sec). Data were analyzed using in-house scripts written for the FIJI distribution of Image J 34, as described (Halls et al. (2015) supra.

| Structure (SMILES) | cytosolic PKC response to influenza A virus or imiquimod |
| --- | --- |
| O=C(N/N=C/c1ccc(O)c(O)c1)c1cc2ccccc2cc1O [Dynasore] | absent |
| CO/C1=C\C(C)=C\[C@@H](C)[C@@H](O)[C@@H](C)C/C(C)=C/C=C/[C@H](OC)[C@@H]([C@@H](C)[C@@H](O)[C@H](C)[C@@]2(O)C[C@@H](O)[C@H](C)[C@@H](C(C)C)O2)OC1=O [bafilomycin A] | absent |
